Out of some 390,000 compounds screened, about 150 (0.038%) were called active. Not shown: some 3% with an inconclusive outcome. Calls come from the whole dose curve; as a rule, active = well fitted inhibition curve with a large enough effect; inconclusive = small, poorly fitted or top-dose-only effect; inactive = no such curve, though single readings can be large or run the other way. The list shows a part of the results, in another mix than the full data. Some compounds were tested as several samples or in several runs, with calls that do not always agree.
Target: Regulator of G-protein signaling 4 (Homo sapiens) (UniProt P49798)
Test: Inhibitors of Regulator of G Protein Signaling (RGS) 4: qHTS; note: nearly all actives have a fitted effect of over 75% in size
Settings: Transcreener GDP fluorescence polarization, RGS4-accelerated GTP hydrolysis; series mostly up to 114 µM; activity change, negative = inhibition: at the top concentration
In short: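 MLSMR compounds (23 nl, pin-transferred) preincubated 10 min at room temperature with a 500nM (2x) first reagent, then RGS4 at 900nM (2x) plus Transcreener GDP mix added; fluorescence polarization (620/688 nm) read before and after 90 min at 30 °C.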
% is set by controls: 0 for no effect and ±100 for the full control effect; potency is the fitted concentration of half-maximal effect.

Chain of UniProt P49798 (P49798 whole entry, looked up): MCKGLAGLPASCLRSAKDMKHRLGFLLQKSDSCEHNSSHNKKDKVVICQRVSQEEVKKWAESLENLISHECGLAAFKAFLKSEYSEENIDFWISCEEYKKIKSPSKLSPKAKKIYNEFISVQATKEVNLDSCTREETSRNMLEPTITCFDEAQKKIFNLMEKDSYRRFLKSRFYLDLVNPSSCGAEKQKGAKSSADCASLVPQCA

Compound	activity change, negative = inhibition	Potency
O=C(CCCN1C(=O)/C(=C\c2cccs2)SC1=S)NNC(=O)c1ccncc1	inactive: -26.2%	
CC(=O)c1cc(CN2CCN(CC=C(C)C)C(CCO)C2)cs1 (configuration not stated)	inactive: 63.9%	
COc1ccccc1NC(=O)c1cc(C)oc1C	inactive: 73.7%	
O=C(Cn1cnc2c(nnn2Cc2ccccc2F)c1=O)NCc1ccco1	inactive: 72.9%	
O=C(NN1C(=O)/C(=C\c2ccc(O)c([N+](=O)[O-])c2)SC1=S)c1ccccc1Cl	inactive: 6.37%	
CC(C)(C)[C@]1(O)CCN2C[C@H]3c4ccccc4CCc4cccc(c43)[C@@H]2C1		inactive
O=C(c1cc(COc2ccc(F)cc2Cl)on1)N1CCc2ccccc2C1	inactive: 71.6%	
OCC[C@@H]1C[C@@H](O)[C@H](O)[C@@]2(CCc3ccccc3CO2)O1	inactive: -3.08%	
COc1cc(NS(C)(=O)=O)ccc1Nc1c2ccccc2nc2ccccc12	inactive: -18.3%	
C[C@@H]1C[C@H]2[C@@H]3CCC4=CC(=O)C=C[C@]4(C)[C@@]3(F)[C@@H](O)C[C@]2(C)[C@@]1(O)C(=O)CO		inactive
CCCN(CC(=O)Nc1ccc(Cl)cc1Cl)C(=O)c1ccc(=O)[nH]c1	inactive: 68%	
O=C(O)CCCCCN1C(=O)/C(=C\c2cn(-c3ccccc3)nc2-c2cccs2)SC1=S	inactive: -64.1% [at 56.9 µM]	
CC1CCN(S(=O)(=O)c2ccc3c(c2)N(C)C(=O)CC(=O)N3C)CC1	inactive: -15.2%	
O=C(O)/C=C/c1ccc(Cn2ccnc2)cc1		inactive
O=C1COc2ccc(S(=O)(=O)N3CCN(c4cccc(Cl)c4)CC3)cc2N1	inactive: 60.8%	
CCCn1c(=O)c2c(ncn2C)n(CCC)c1=O		inactive
CC(COc1ccc(/C=C/c2ccccc2)cc1)[N+](C)(C)C (configuration not stated)	inactive: -6.87%	
CCc1cc[n+](/C(C(=S)Nc2cccc(C)c2)=C(/[O-])c2ccc(C)c([N+](=O)[O-])c2)cc1	inactive: -18.1%	
CC(C)CCNC(=O)CCc1nnc(COc2ccccc2)o1	inactive: 57.6%	
COc1cc2c(C#N)c(N3CCCC3)nc(N)c2c(N)n1	inactive: 20.6% [at 11.4 µM]	
O=C(CCN1C(=O)/C(=C/c2ccccc2F)SC1=S)N[C@@H](CO)Cc1ccccc1	inactive: 58.8%	

Compound	activity change, negative = inhibition	Potency
CCCCC[C@H](O)/C=C/[C@@H]1[C@@H](C/C=C\CCCC(=O)O)[C@@H](O)C[C@H]1O	inactive: 14.4%	
CCN1/C(=C\C(C)=O)Sc2ccc(OC)cc21	inactive: 9.45%	
COc1cc2c(cc1OC)-c1cc(=Nc3c(C)cc(C)cc3C)n(C)c(=O)n1CC2	inactive: 18.2%	
CCOCC(=O)Nc1ccc(F)c(F)c1	inactive: 128%	
CCCCC/C=C\C/C=C\C/C=C\CC1OC1CCCC(=O)O (configuration not stated)		active: 37.7 µM
Cc1ccc(-n2c(CCC(=O)O)ccc2-c2cccs2)cc1C	inactive: -28.5%	
CCOc1ccccc1Nc1nc2ccccc2[nH]1	inactive: 64.7%	
OCC[C@@H]1C[C@H](O)[C@@H](O)[C@@]2(CCc3ccccc3CO2)O1	inactive: 20.5%	
C=CCNC(=O)c1cn(CC)c2cc(N3CCN(C(=O)c4ccco4)CC3)c(F)cc2c1=O	inactive: 58.3%	
CC(C)(C)NC[C@H](O)COc1nsnc1N1CCOCC1		inactive
CCc1cccc(NC(=O)C2CCCN(S(=O)(=O)c3cccs3)C2)c1 (configuration not stated)	inactive: 6.25%	
CC(C)NC(=O)Nc1cccc2c1O[C@H](CN(C)C(=O)NC1CCCCC1)[C@@H](C)CN([C@H](C)CO)C2=O	inactive: 26.5%	
Cc1ccc(NC(=O)CN2C(=O)COc3ccc(S(=O)(=O)N4CCCC4)cc32)cc1C	inactive: 64.6%	
CSc1nc(N)c2ncn([C@@H]3O[C@H](COP(=O)(O)OP(=O)(O)OP(=O)(O)O)[C@@H](O)[C@H]3O)c2n1		active: 11.9 µM
CCc1nn(CCCC(=O)NCc2cc(Br)ccc2OC)c(=O)c2cc3occc3n12	inactive: 10.5% [at 11.4 µM]	
O=C1ON=C(c2ccccc2)/C1=C\c1ccco1	inactive: -26.4%	
Cn1c(=O)n(C)c2cc(/C=N/n3cnnc3)ccc21	inactive: 58.8%	
COc1cc(OC)cc(C(=O)N2CCN(C(=O)c3cccc(F)c3)CC2)c1	inactive: 55.9%	
OCC[C@@H]1C[C@H](O)[C@@H](O)[C@@]2(OCCc3ccccc32)O1	inactive: 15.5%	
CCC(Oc1ccccc1)C(=O)Nc1nnc(S(=O)(=O)N2CCCCC2)s1 (configuration not stated)	inactive: 66.6%	
CCn1cc(C(=O)NCCN(CC(C)C)CC(C)C)c(=O)c2cc(S(=O)(=O)N3CCOCC3)ccc21	inactive: 67.4%	

Compound	activity change, negative = inhibition	Potency
CC[C@@H]1CC=C[C@H]2[C@H]1C(=O)N(Cc1ccccc1)[C@H]2c1ccoc1	inactive: -27.5%	
CC(Cc1ccccc1)Nc1ncnc2c1ncn2C1OC(CO)C(O)C1O (configuration not stated)	inactive: -0.61%	
NCCS(=O)(=O)O		inactive
COc1cccc2c1cc1c(=O)n(CC(=O)N3CCN(c4cccc(C)c4C)CC3)nc(C)n12	inactive: 15.8%	
c1ccc(C(NCCNC(c2ccccc2)c2ccccc2)c2ccccc2)cc1		inactive
CCCn1c(N)c(C(=O)CSc2nnc3n2CCCCC3)c(=O)n(C)c1=O	inactive: 133%	
C=CCNC(=O)/C(=C\c1ccc(Br)cc1)NC(=O)c1ccccc1OC	inactive: -20.3%	
COc1ccc2[nH]cc(CCNC(C)=O)c2c1		inactive
CCOC(=O)c1c(NC(=O)c2cc(C(C)C)on2)sc(C(C)=O)c1C	inactive: 21.2%	
CCc1nnc(NC(=O)c2nc(S(=O)(=O)Cc3ccc(C)cc3)ncc2Cl)s1	inactive: -12.2%	
Nc1nc(SCc2ccc([N+](=O)[O-])cc2)c2ncn([C@@H]3O[C@H](CO)[C@@H](O)[C@H]3O)c2n1	inactive: 25% [at 56.9 µM]	
CCOc1ccc(NC(=O)C(NC(=O)C2CCC(C)CC2)C(C)C)cc1 (configuration not stated)	inactive: -20.7%	
Cc1cccc(NC(=O)Cc2cccs2)n1	inactive: 54.4%	
COc1ccc(Nc2nnc(SCC(=O)N3CCCC3)s2)cc1	inactive: 57.4%	
O=C(CC(SCCO)c1ccc([N+](=O)[O-])cc1)c1ccco1 (configuration not stated)	inactive: 57.8%	
CCOC(=O)[C@@H]1[C@H]2COc3ccccc3[C@@H]2N2C(=O)N(c3ccc(C)cc3)C(=O)[C@]12C	inactive: -6.94%	
O=Nc1c(-c2c(O)[nH]c3cc(Br)ccc23)[nH]c2ccccc12	inactive: 5.48%	
Nc1nc(SCc2ccc([N+](=O)[O-])cc2)c2ncn(C3OC(CO)C(O)C3O)c2n1 (configuration not stated)	inactive: 2.31%	
Cc1csc(NC(=O)CCc2ccc(S(=O)(=O)N3CCOCC3)cc2)n1	inactive: 103%	
Nc1ncnc2c1ncn2[C@@H]1O[C@H](COP(=O)(O)OP(=O)(O)OP(=O)(O)OP(=O)(O)OC[C@@H]2O[C@H](n3cnc4c(N)ncnc43)[C@@H](O)[C@H]2O)[C@@H](O)[C@H]1O		active: 2.99 µM
